The record followed here is the antibiotic and cytotoxicity screens of Wong et al. (2023).

This is one part of the list.

The subject of this assay is S. aureus RN4220. Kind of assay: growth inhibition call (relative growth <= 0.2). Particulars: 50 µM.
Consider `C[C@@H]1CCCCO[C@@H](CN(C)Cc2ccc(C(=O)O)cc2)[C@@H](C)CN([C@@H](C)CO)C(=O)c2cc(NS(=O)(=O)c3ccc(Cl)cc3)ccc2O1`, for which the growth inhibition call was “inactive”.

As to `C[C@H](CO)N1C[C@H](C)[C@H](CN(C)S(=O)(=O)c2ccc(Cl)cc2)Oc2ccc(NS(C)(=O)=O)cc2CC1=O`, the growth inhibition call is “inactive”.

For the compound `C[C@@H]1CN([C@@H](C)CO)C(=O)c2cccc(NC(=O)c3nc4ccccc4s3)c2O[C@H]1CN(C)Cc1ccc(C(=O)Nc2ccccc2N)cc1`, the growth inhibition call was “inactive”.

As for `Cc1noc(C)c1NC(=O)N(C)C[C@@H]1OCCCC[C@H](C)Oc2ccc(NC(=O)Nc3cccc4ccccc34)cc2C(=O)N([C@H](C)CO)C[C@@H]1C`, the growth inhibition call is “inactive”.

For `C[C@@H]1CN([C@@H](C)CO)C(=O)c2cccc(NS(=O)(=O)c3cccs3)c2O[C@H]1CN(C)Cc1ccc(-c2ccccc2)cc1`, the growth inhibition call was “inactive”.

On to `C[C@@H](N)C1CCC(C(=O)Nc2ccncc2)CC1` (stereo not given in full), for which the growth inhibition call is “inactive”.

With `Cc1nc2c(c(N3CCOCC3)n1)OCC(=O)N2`, the growth inhibition call was “inactive”.

Regarding `Cc1ccc(C(=O)CCNc2ccc3c(c2)oc2ccccc23)o1`, the growth inhibition call is “inactive”.

Consider `COc1ccc(NC(=O)Nc2ccc3c(c2)C(=O)N([C@H](C)CO)C[C@H](C)[C@@H](CN(C)C(=O)CCC(F)(F)F)OCCCC[C@H](C)O3)cc1`, for which the growth inhibition call was “inactive”.

Regarding `C[C@@H]1CCCCO[C@@H](CN(C)C(=O)C2CCCCC2)[C@H](C)CN([C@H](C)CO)C(=O)c2cc(NC(=O)c3ccccc3)ccc2O1`, the growth inhibition call is “inactive”.

For `Cc1noc(C)c1NC(=O)N(C)C[C@H]1Oc2c(NC(=O)c3cnccn3)cccc2C(=O)N([C@@H](C)CO)C[C@@H]1C`, the growth inhibition call is “inactive”.

Take `C[C@@H]1CN([C@@H](C)CO)C(=O)c2cc(NC(=O)c3ccncc3)ccc2O[C@@H](C)CCCCO[C@H]1CN(C)S(C)(=O)=O`: the growth inhibition call was “inactive”.

With `C[C@H]1CCCCO[C@H](CN(C)C(=O)c2ccccc2)[C@@H](C)CN([C@@H](C)CO)C(=O)c2cc(NC(=O)Cc3ccccc3)ccc2O1`, the growth inhibition call is “inactive”.

For the compound `CCOC(=O)CCCCCCCCCCCC[C@@H]1C=CCC1`, the growth inhibition call was “inactive”.

As to `COc1ccc(CN(C)C[C@H]2Oc3ccc(NC(=O)Cn4cnnn4)cc3C(=O)N([C@H](C)CO)C[C@@H]2C)cc1`, the growth inhibition call was “inactive”.

Turning to `C[C@@H]1CCCCO[C@H](CN(C)C(=O)c2ccncc2)[C@H](C)CN([C@H](C)CO)C(=O)c2cc(NS(=O)(=O)c3ccc(Cl)cc3)ccc2O1`, the growth inhibition call was “inactive”.

Turning to `C[C@@H]1CN([C@H](C)CO)C(=O)Cc2cc(NS(C)(=O)=O)ccc2O[C@@H]1CN(C)Cc1ccc(C(=O)Nc2ccccc2N)cc1`, the growth inhibition call is “inactive”.

With `COCC#Cc1ccc2c(c1)O[C@@H](CN(C)C(=O)Nc1ccc(OC)cc1)[C@@H](C)CN([C@H](C)CO)S2(=O)=O`, the growth inhibition call was “inactive”.

For the compound `C[C@@H]1CCCCO[C@H](CN(C)C(=O)Nc2ccc3c(c2)OCO3)[C@@H](C)CN([C@H](C)CO)C(=O)c2cc(NC(=O)Cc3ccccc3)ccc2O1`, the growth inhibition call was “inactive”.

Turning to `C[C@@H]1CCCCO[C@H](CN(C)Cc2ccc(C(=O)O)cc2)[C@H](C)CN([C@H](C)CO)C(=O)c2cc(NC(=O)Nc3ccccc3)ccc2O1`, the growth inhibition call was “inactive”.

Turning to `C[C@@H]1CN([C@H](C)CO)C(=O)c2cc(NS(=O)(=O)c3ccc(F)cc3)ccc2O[C@H]1CN(C)S(=O)(=O)c1cccs1`, the growth inhibition call was “inactive”.

As for `CC[C@@H]1CN(C(=O)OC)N1`, the growth inhibition call is “inactive”.

On to `COc1ccccc1C#Cc1ccc2c(c1)O[C@H](CN(C)Cc1ccncc1)[C@H](C)CN([C@H](C)CO)S2(=O)=O`, for which the growth inhibition call was “inactive”.

Turning to `C[C@@H]1CCCCO[C@H](CN(C)C(=O)NC2CCCCC2)[C@H](C)CN([C@@H](C)CO)C(=O)c2cc(NC(=O)Nc3ccc4c(c3)OCO4)ccc2O1`, the growth inhibition call is “inactive”.

As for `C[C@H]1CN([C@@H](C)CO)C(=O)CCCn2nncc2CO[C@@H]1CN(C)S(=O)(=O)c1ccc2c(c1)OCCCO2`, the growth inhibition call is “inactive”.

As to `C[C@@H]1CN([C@@H](C)CO)C(=O)c2cc(NC(=O)Nc3ccc(C(F)(F)F)cc3)ccc2O[C@@H](C)CCCCO[C@@H]1CN(C)CC1CCCCC1`, the growth inhibition call was “inactive”.

As to `O=C1CN(N=Cc2ccc([N+](=O)[O-])o2)C(=O)N1`, the growth inhibition call is “active”.

For `C[C@H](CO)N1C[C@H](C)[C@H](CN(C)S(C)(=O)=O)Oc2c(cccc2N(C)C)C1=O`, the growth inhibition call was “inactive”.

Take `CS(=O)(=O)O.CSc1ccc2c(c1)C(N1CCN(C)CC1)Cc1ccccc1S2` (stereo not given): the growth inhibition call is “active”.

`Cc1noc(C)c1S(=O)(=O)N(C)C[C@@H]1Oc2ccc(NC(=O)NC3CCCCC3)cc2CC(=O)N([C@H](C)CO)C[C@H]1C`: the growth inhibition call was “inactive”.

Consider `C[C@H]1CN([C@@H](C)CO)C(=O)CCCn2nncc2CO[C@@H]1CN(C)S(=O)(=O)c1cccc(C#N)c1`, for which the growth inhibition call is “inactive”.

`COc1ccc2c3c([nH]c2c1)[C@H](CO)N(C[C@]13CCN(CC1)C(=O)CN(C)C)S(=O)(=O)C`: the growth inhibition call was “inactive”.

Turning to `C[C@@H]1CN([C@@H](C)CO)C(=O)Cc2cc(NS(C)(=O)=O)ccc2O[C@H]1CN(C)Cc1ccc2c(c1)OCO2`, the growth inhibition call was “inactive”.

In the case of `COc1ccc(S(=O)(=O)N(C)C[C@@H]2OCCCC[C@@H](C)Oc3ccc(NC(=O)Nc4ccc(C(F)(F)F)cc4)cc3C(=O)N([C@@H](C)CO)C[C@@H]2C)cc1`, the growth inhibition call was “inactive”.

For `C[C@@H]1CN([C@@H](C)CO)C(=O)c2cccc(NS(=O)(=O)c3ccc(F)cc3)c2O[C@H]1CN(C)C(=O)Nc1cccc2ccccc12`, the growth inhibition call is “inactive”.

Turning to `Cc1ccc(S(=O)(=O)Nc2ccc3c(c2)C(=O)N([C@@H](C)CO)C[C@H](C)[C@@H](CN(C)Cc2ccncc2)OCCCC[C@@H](C)O3)cc1`, the growth inhibition call is “inactive”.

`COC(=O)[C@H](Cc1ccccc1)N1CC(/C=C/C2CC2)=C[C@@H]1[C@@H](O)CCn1cc(-c2ccc(C(=O)NO)s2)nn1`: the growth inhibition call was “inactive”.

With `Clc1ccccc1Nc1ccc(-c2ccncc2)s1`, the growth inhibition call was “inactive”.

For the compound `CN(C)C(=O)C[C@H]1C=C[C@H](NC(=O)C2CC2)[C@@H](CO)O1`, the growth inhibition call is “inactive”.

As for `Cc1noc(C)c1NC(=O)N(C)C[C@@H]1OCCCC[C@H](C)Oc2ccc(NC(=O)Nc3ccc(C(F)(F)F)cc3)cc2C(=O)N([C@@H](C)CO)C[C@@H]1C`, the growth inhibition call is “inactive”.
